{"source": "PubChem BioAssay AID485294", "about": "(National Center for Advancing Translational Sciences (NCATS), 2010)", "note": "In all, about 370,000 compounds went through this assay and about 150 (0.041%) were called active. Inconclusive results, whose numbers are uncertain, are shown with a selection of clear calls. The call rests on the fitted dose curve; in most records, active means well fitted inhibition curve with a large enough effect; inconclusive means small, poorly fitted or top-dose-only effect; inactive means flat fitted curve, though single readings scatter. No potency is given beside an inconclusive call; the fits are too rough."}
{"target": "Beta-lactamase (Escherichia coli (strain K12)) (UniProt P00811)", "sequence (P00811 whole entry, looked up)": "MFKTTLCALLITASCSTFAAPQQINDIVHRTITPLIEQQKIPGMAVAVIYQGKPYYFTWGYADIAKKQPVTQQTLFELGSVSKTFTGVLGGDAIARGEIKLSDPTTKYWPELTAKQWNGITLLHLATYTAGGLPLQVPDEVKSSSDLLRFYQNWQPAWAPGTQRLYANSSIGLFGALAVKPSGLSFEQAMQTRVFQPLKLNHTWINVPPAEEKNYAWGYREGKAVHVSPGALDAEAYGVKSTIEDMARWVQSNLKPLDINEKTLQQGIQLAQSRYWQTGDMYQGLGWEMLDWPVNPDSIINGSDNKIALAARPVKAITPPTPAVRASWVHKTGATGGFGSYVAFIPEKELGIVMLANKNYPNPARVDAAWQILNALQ", "assay": "qHTS Inhibitors of AmpC Beta-Lactamase (assay with detergent); further: nearly all actives have a fitted effect of over 25% in size; further: potency means the concentration at half of the fitted maximal effect; tags describe the fitted curve by direction and shape", "conditions": "AmpC hydrolysis of nitrocefin, absorbance 480 nm, 0.01% Triton; series mostly up to 114 µM", "how_it_was_run": "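AmpC (5.3 nM in the dispensed reagent) in 20 mM phosphate pH 7.0 with 0.01% (detergent screen) or 0.0001% Triton X-100 was preincubated with compounds for 15 min at room temperature. Nitrocefin was then added from an 800 uM solution, and hydrolysis was followed at 480 nm.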"}
{"molecule": "CNC(=S)N(C1=NCC(c2ccc([N+](=O)[O-])cc2)S1)c1ccccc1", "note": "(stereo not drawn)", "Potency": "inactive"}
{"molecule": "CCC(=O)N1CC2(CC(c3cccc(NC(=O)COc4ccc(Cl)cc4)c3)=NO2)C[C@@H]1C(N)=O", "note": "(stereo partly drawn)", "Potency": "inconclusive [inhibitor, single point]"}
{"molecule": "CCc1nc2ccccc2c(C(=O)OC2CCCCC2=O)c1C", "note": "(stereo not drawn)", "Potency": "inconclusive [inhibitor, full curve]"}
{"molecule": "CC(=O)Nc1ccc(NC(=O)C(C)OC(=O)CNS(=O)(=O)/C=C/c2ccc(C)cc2)cc1", "note": "(stereo not drawn)", "Potency": "inconclusive [inhibitor, full curve, poor fit]"}
{"molecule": "Cc1ccc(Cn2c(SCC(=O)NCc3ccc(Cl)cc3)nc3ccsc3c2=O)cc1", "Potency": "inactive"}
{"molecule": "CC(C)(C)c1cc(C(C)(C)C)c2oc(=O)c(-c3nc4ccccc4[nH]3)cc2c1", "Potency": "inactive"}
{"molecule": "CC(C)OCCCNC(=O)c1ccc(NC(=O)C2CCCO2)cc1", "note": "(stereo not drawn)", "Potency": "inconclusive [inhibitor, full curve, poor fit]"}
{"molecule": "CCN(CC)C(=O)c1cc2c(=O)n3cccc(C)c3nc2s1", "Potency": "inactive"}
{"molecule": "COC(=O)CN(c1nc(C)cc(OC)n1)S(=O)(=O)c1ccc(C)cc1", "Potency": "inconclusive [inhibitor, full curve, poor fit]"}
{"molecule": "O=C1CSC2(CCCCC2)N1CCO", "Potency": "inconclusive [inhibitor, full curve]"}
{"molecule": "CC(=O)c1ccc(OCCCC(=O)OCc2nnc(-c3ccc(Cl)cc3)o2)cc1", "Potency": "inconclusive [inhibitor, partial curve, poor fit]"}
{"molecule": "O=C(Nc1ccc(F)cc1F)c1ccc(CN2CC(=O)N3CCCCC3C2=O)cc1", "note": "(stereo not drawn)", "Potency": "inactive"}
{"molecule": "CCN(CC)S(=O)(=O)c1cc(C(=O)Oc2ccccc2OC)ccc1OC", "Potency": "inconclusive [inhibitor, full curve, poor fit]"}
{"molecule": "Fc1cccc(-n2ncc(-c3nnnn3-c3ccccc3)c2C(F)(F)F)c1", "Potency": "inconclusive [inhibitor, partial curve, poor fit]"}
{"molecule": "Cc1nc2c(S(=O)(=O)c3ccccc3)cnn2c(C)c1C", "Potency": "inconclusive [inhibitor, full curve]"}
{"molecule": "COc1cc(SC)ccc1C(=O)N1CCN(Cc2ccccc2)CC1", "Potency": "inactive"}
{"molecule": "CC(=O)CSc1cc(C)nc2c(-c3ccccc3)c(C)nn12", "Potency": "inactive"}
{"molecule": "CCOc1ncccc1C(=O)N(CC)CC(=O)NCc1ccc(F)cc1", "Potency": "inconclusive [inhibitor, single point]"}
{"molecule": "Cc1ccc(Cn2nnc3c(=O)n(CC(=O)c4ccccc4)cnc32)cc1", "Potency": "inconclusive [inhibitor, full curve]"}
{"molecule": "CC(=O)c1ccc(NC(=O)c2noc(C(C)C)c2[N+](=O)[O-])cc1", "Potency": "inactive"}
{"molecule": "CC(C)N=c1c([N+](=O)[O-])nn(C)n1O", "Potency": "inconclusive [inhibitor, full curve, poor fit]"}
{"molecule": "CCOC(=O)c1c(C)c(-c2ccccc2)n(CC(=O)Nc2cc(OC)cc(OC)c2)c1C", "Potency": "inactive"}
{"molecule": "CC(C)CN(C(=O)CN1CCN(c2ccc([N+](=O)[O-])cc2)CC1)c1c(N)n(CC(C)C)c(=O)[nH]c1=O", "Potency": "inconclusive [inhibitor, full curve, poor fit]"}
{"molecule": "Cc1ccc2c(c1)[nH]c1c(N3CCN(Cc4ccccc4)CC3)ncnc12", "Potency": "inactive"}
{"molecule": "Cc1cccc(OCCNS(=O)(=O)c2ccc(Cl)cc2)c1", "Potency": "inconclusive [inhibitor, full curve, poor fit]"}
{"molecule": "COc1ccccc1/C=C/C(=O)NC(=S)N(C)C1CCCCC1", "Potency": "inactive"}
{"molecule": "O=C(c1cc2ccccc2o1)N(Cc1ccco1)Cc1cccs1", "Potency": "inconclusive [inhibitor, partial curve, poor fit]"}
{"molecule": "Cc1ccc(C(=O)CSc2nnc(-c3ccccc3N)n2C)cc1", "Potency": "inconclusive [inhibitor, single point]"}
{"molecule": "CN1CCc2c(sc(/N=C/c3cccs3)c2C(N)=O)C1", "Potency": "inconclusive [inhibitor, full curve, poor fit]"}
{"molecule": "COc1cc2c3c(c1)C1(C(=O)N3C(C)(C)C=C2C)C(C#N)=C(N)Oc2cc(C)oc(=O)c21", "note": "(stereo not drawn)", "Potency": "inactive"}
{"molecule": "CC1Cc2nc(SCC(=O)N3CCN(c4ccccc4)CC3)n(C)c(=O)c2S1", "note": "(stereo not drawn)", "Potency": "inconclusive [inhibitor, full curve, poor fit]"}
{"molecule": "CC(C)(C)OC(=O)N[C@@H](Cc1ccccc1)C(=O)N[C@@H](CO)[C@H](O)[C@@H]1C[C@@H]1C(=O)NC1CC1", "Potency": "inconclusive [inhibitor, full curve, poor fit]"}
{"molecule": "O=C1NC(c2cccnc2)Nc2sc3c(c21)CCCC3", "note": "(stereo not drawn)", "Potency": "inconclusive [inhibitor, partial curve]"}
{"molecule": "CC(CN1CCCCC1)OC(=O)c1ccc2c(c1)OCCO2", "note": "(stereo not drawn)", "Potency": "inactive"}
{"molecule": "Cc1ccc2oc(-c3ccc(NC(=O)CC(C)C)cc3)nc2c1", "Potency": "inconclusive [inhibitor, full curve, poor fit]"}
{"molecule": "CN(C)S(=O)(=O)c1ccc(Cl)c(NC(=O)COC(=O)c2cc(-c3ccccc3)nc3ccccc23)c1", "Potency": "inconclusive [inhibitor, full curve]"}
{"molecule": "COc1ccc(C(O)(CCC(C)C)C(CN2CCOCC2)c2ccc(Cl)cc2)cc1", "note": "(stereo not drawn)", "Potency": "inconclusive [inhibitor, full curve, poor fit]"}
{"molecule": "Cc1cc2c(cc1S(=O)(=O)NCc1ccc(N(C)C)cc1)OCC(=O)N2", "Potency": "inconclusive [inhibitor, full curve, poor fit]"}
{"molecule": "COc1ccc(CC(=S)N2CCOCC2)cc1OC", "Potency": "inconclusive [inhibitor, full curve, poor fit]"}
{"molecule": "Cc1cc(C)nc(SCCC(=O)Nc2cccc3ccccc23)n1", "Potency": "inconclusive [inhibitor, full curve, poor fit]"}
{"molecule": "Cc1ccc(OCc2nc3ccccc3n2CC(C)C)cc1", "Potency": "inactive"}
{"molecule": "Cn1c2c(c(=O)n(C)c1=O)CN(Cc1ccco1)CN2", "Potency": "inconclusive [inhibitor, full curve, poor fit]"}
{"molecule": "Cc1ccc2[nH]c3nc(N/N=C/c4cccc(O)c4)nnc3c2c1", "Potency": "inconclusive [inhibitor, full curve, poor fit]"}
{"molecule": "O=C(NCc1ccccn1)c1ccc(Cn2cc(Br)cn2)o1", "Potency": "inactive"}
{"molecule": "COc1ccccc1NC(=O)Nc1ccc(N2CCOCC2)cc1", "Potency": "inactive"}
{"molecule": "CC(C)(C)c1ccc(OCC(=O)NCC(c2cccs2)N2CCOCC2)cc1", "note": "(stereo not drawn)", "Potency": "inconclusive [inhibitor, full curve, poor fit]"}
{"molecule": "Cc1ccc(-c2nc(CSCC(=O)N3CCCC3)c(C)o2)cc1", "Potency": "inconclusive [inhibitor, partial curve, poor fit]"}
{"molecule": "Cc1c(N=NC2=C(O)CC(C)(C)CC2=O)c(=O)n(-c2ccccc2)n1C", "Potency": "inconclusive [inhibitor, full curve]"}
{"molecule": "CC(=Nc1cccc(O)c1)c1sc2ccccc2c1O", "Potency": "inconclusive [inhibitor, partial curve, poor fit]"}
{"molecule": "COn1c(SC2CCCCC2)nc2ccccc2c1=O", "Potency": "inconclusive [inhibitor, full curve]"}
{"molecule": "CCOC(=O)CSc1ncc(-c2cccc(Cl)c2)cn1", "Potency": "inconclusive [inhibitor, full curve, poor fit]"}
{"molecule": "CCCC(=O)NCC(c1ccc2c(c1)OCO2)N1CCN(c2ccc(F)cc2)CC1", "note": "(stereo not drawn)", "Potency": "inactive"}
{"molecule": "Cc1ccc(NC(=O)COc2ccc(C3SCCS3)cc2)cc1", "Potency": "inconclusive [inhibitor, partial curve]"}
{"molecule": "COC(=O)c1c(NC(=O)COC(=O)CNC(=O)c2ccco2)sc(C)c1C", "Potency": "inconclusive [inhibitor, single point]"}
{"molecule": "COc1ccc(C(=O)CSc2nnnn2C)c(OC)c1", "Potency": "inconclusive [inhibitor, full curve, poor fit]"}
{"molecule": "CCOCCn1ccc2c(OCC(=O)NCCc3ccc(OC)c(OC)c3)cccc2c1=O", "Potency": "inconclusive [inhibitor, full curve, poor fit]"}
{"molecule": "N#Cc1c(N2C(=O)Nc3ccccc3N2O)sc2c1CCCCCC2", "Potency": "inactive"}
{"molecule": "O=C1c2cccnc2C(=O)N1c1cccc(-c2nc3ccccc3o2)c1", "Potency": "inactive"}
{"molecule": "COc1ccc(NC(=O)CCc2nnc3ccc(N4CCC5(CC4)OCCO5)nn23)cc1", "Potency": "inconclusive [inhibitor, full curve, poor fit]"}
{"molecule": "Cn1c(=O)c2c(nc(N3CCCCC3)n2C)n(C)c1=O", "Potency": "inconclusive [inhibitor, partial curve]"}
{"molecule": "COc1ccc(OC)c2c1cc(C(=O)N[C@H](C(=O)N1CCC[C@H]1C(=O)O)C(C)C)n2C", "Potency": "inconclusive [inhibitor, full curve]"}
{"molecule": "CC(=O)N1CC(C)Sc2ccc(S(=O)(=O)NC3CCCCC3)cc21", "note": "(stereo not drawn)", "Potency": "inconclusive [inhibitor, full curve, poor fit]"}
{"molecule": "Cc1ccc(/C=C2\\OC(=O)c3ccccc32)cc1", "Potency": "inactive"}
{"molecule": "NC(=S)N/N=C/c1ccccc1OC(=O)c1cc2ccccc2oc1=O", "Potency": "inconclusive [inhibitor, partial curve]"}
{"molecule": "c1ccc(CSc2ncccn2)cc1", "Potency": "inconclusive [inhibitor, full curve]"}
{"molecule": "COc1ccccc1C1c2ccc3ccccc3c2Oc2ncn(CCN(C)C)c(=N)c21", "note": "(stereo not drawn)", "Potency": "inactive"}
{"molecule": "COc1ccc(-c2cnc(C)o2)cc1S(=O)(=O)Nc1ccc(C)c(F)c1", "Potency": "inconclusive [inhibitor, single point]"}
{"molecule": "Cc1cc(C)n(C(=O)C(C)n2nc([N+](=O)[O-])c(Br)c2C)n1", "note": "(stereo not drawn)", "Potency": "inconclusive [inhibitor, single point]"}
